{"source": "a collection of fitness landscapes (doi:10.1016/j.celrep.2020.107928)", "parents": {"B1": {"name": "Caulobacter ParB omega fusion; a variant is named by its letters at X, in order, B8GW30 (parent)", "chain": "MESVVVGEPGMSEGRRGLGRGLSALLGEVDAAPAQAPGEQLGGSREAPIEILQRNPDQPRRTFREEDLEDLSNSIREKGVLQPILVRPSPDTAGEYQIVAGERAWRAAQRAGLKTVPIMVRELDDLAVLEIGIIENVQRADLNVLEEALSYKVLMEKFERTQENIAQTIGKSXSHVANXMRLLXLPDEVQSYLVSGELTAXHARAIAAAADPVALAKQIIEGGLSVRETEALARKAPNLSAGKSKGGRPPRVKDTDTQALESDLSSVLGLDVSIDHRGSTGTLTITYATLEQLDDLCNRLTRGI"}}, "note": "The full ranking holds about 81,000 sequences; the median of “one-hybrid fitness for binding parS DNA” is about -0.17, and the highest 2% start at about 0.51. The list shows a part of the results."}
{"variants_of": "B1", "experiment": "one-hybrid fitness for binding parS DNA (scaled: cognate 1, non-cognate 0); higher = stronger binding", "details": "with parS DNA site", "outline": "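The reporter was HIS3, with the binding site 19 bp from the promoter, in E. coli USO used for bacterial one-hybrid selection of Caulobacter ParB libraries with four specificity codons randomised. Growth was on M9 lacking histidine, with 0.1 mM IPTG and 5 mM 3-AT, for 48 hours at 37°C. Illumina sequencing covered plasmids before and after selection; three replicate libraries were pooled and variants with under 10 reads dropped. A fitness score is the log change in variant-to-wild-type read ratio, rescaled to the cognate and non-cognate references.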"}
{"variant": "KEKS", "one-hybrid fitness for binding parS DNA": "≤ 0.2"}
{"variant": "CAAV", "one-hybrid fitness for binding parS DNA": "≤ 0.2"}
{"variant": "KKTR", "one-hybrid fitness for binding parS DNA": "≤ 0.2"}
{"variant": "NFAT", "one-hybrid fitness for binding parS DNA": "≤ 0.2"}
{"variant": "TYEY", "one-hybrid fitness for binding parS DNA": "≤ 0.2"}
{"variant": "TCLL", "one-hybrid fitness for binding parS DNA": "≤ 0.2"}
{"variant": "RQFS", "one-hybrid fitness for binding parS DNA": 0.957}
{"variant": "REIG", "one-hybrid fitness for binding parS DNA": "≤ 0.2"}
{"variant": "YPAH", "one-hybrid fitness for binding parS DNA": "≤ 0.2"}
{"variant": "NTTP", "one-hybrid fitness for binding parS DNA": "≤ 0.2"}
{"variant": "EMNG", "one-hybrid fitness for binding parS DNA": "≤ 0.2"}
{"variant": "NPAL", "one-hybrid fitness for binding parS DNA": "≤ 0.2"}
{"variant": "SYGS", "one-hybrid fitness for binding parS DNA": "≤ 0.2"}
{"variant": "HLNL", "one-hybrid fitness for binding parS DNA": "≤ 0.2"}
{"variant": "FGHS", "one-hybrid fitness for binding parS DNA": "≤ 0.2"}
{"variant": "SMNR", "one-hybrid fitness for binding parS DNA": "≤ 0.2"}
{"variant": "WPVT", "one-hybrid fitness for binding parS DNA": "≤ 0.2"}
{"variant": "NFAL", "one-hybrid fitness for binding parS DNA": "≤ 0.2"}
{"variant": "VAPD", "one-hybrid fitness for binding parS DNA": "≤ 0.2"}
{"variant": "IANP", "one-hybrid fitness for binding parS DNA": "≤ 0.2"}
{"variant": "AYVA", "one-hybrid fitness for binding parS DNA": "≤ 0.2"}
{"variant": "SKKS", "one-hybrid fitness for binding parS DNA": "≤ 0.2"}
{"variant": "LSCL", "one-hybrid fitness for binding parS DNA": "≤ 0.2"}
{"variant": "WSQR", "one-hybrid fitness for binding parS DNA": "≤ 0.2"}
{"variant": "GPKN", "one-hybrid fitness for binding parS DNA": "≤ 0.2"}
{"variant": "REIF", "one-hybrid fitness for binding parS DNA": "≤ 0.2"}
{"variant": "EIGE", "one-hybrid fitness for binding parS DNA": "≤ 0.2"}
{"variant": "RFQM", "one-hybrid fitness for binding parS DNA": 0.257}
{"variant": "AFVS", "one-hybrid fitness for binding parS DNA": "≤ 0.2"}
{"variant": "KDYR", "one-hybrid fitness for binding parS DNA": "≤ 0.2"}
{"variant": "EARI", "one-hybrid fitness for binding parS DNA": "≤ 0.2"}
{"variant": "LSYW", "one-hybrid fitness for binding parS DNA": "≤ 0.2"}
{"variant": "GATY", "one-hybrid fitness for binding parS DNA": "≤ 0.2"}
{"variant": "PLMS", "one-hybrid fitness for binding parS DNA": "≤ 0.2"}
{"variant": "QIVS", "one-hybrid fitness for binding parS DNA": "≤ 0.2"}
{"variant": "LKMK", "one-hybrid fitness for binding parS DNA": "≤ 0.2"}
{"variant": "HCSC", "one-hybrid fitness for binding parS DNA": "≤ 0.2"}
{"variant": "KTIQ", "one-hybrid fitness for binding parS DNA": "≤ 0.2"}
{"variant": "DYAL", "one-hybrid fitness for binding parS DNA": "≤ 0.2"}
{"variant": "SAPS", "one-hybrid fitness for binding parS DNA": "≤ 0.2"}
{"variant": "PRDH", "one-hybrid fitness for binding parS DNA": "≤ 0.2"}
{"variant": "LPPP", "one-hybrid fitness for binding parS DNA": "≤ 0.2"}
{"variant": "DWTT", "one-hybrid fitness for binding parS DNA": "≤ 0.2"}
{"variant": "AHTT", "one-hybrid fitness for binding parS DNA": "≤ 0.2"}
{"variant": "EIAY", "one-hybrid fitness for binding parS DNA": "≤ 0.2"}
{"variant": "PYLS", "one-hybrid fitness for binding parS DNA": "≤ 0.2"}
{"variant": "VFIR", "one-hybrid fitness for binding parS DNA": "≤ 0.2"}
{"variant": "AWAM", "one-hybrid fitness for binding parS DNA": "≤ 0.2"}
{"variant": "FAEL", "one-hybrid fitness for binding parS DNA": "≤ 0.2"}
{"variant": "MRKR", "one-hybrid fitness for binding parS DNA": "≤ 0.2"}
{"variant": "GART", "one-hybrid fitness for binding parS DNA": "≤ 0.2"}
{"variant": "YNMR", "one-hybrid fitness for binding parS DNA": "≤ 0.2"}
{"variant": "DYTC", "one-hybrid fitness for binding parS DNA": "≤ 0.2"}
{"variant": "AVGE", "one-hybrid fitness for binding parS DNA": "≤ 0.2"}
{"variant": "NITC", "one-hybrid fitness for binding parS DNA": "≤ 0.2"}
{"variant": "LYKL", "one-hybrid fitness for binding parS DNA": "≤ 0.2"}
{"variant": "CENT", "one-hybrid fitness for binding parS DNA": "≤ 0.2"}
{"variant": "LQNR", "one-hybrid fitness for binding parS DNA": "≤ 0.2"}
{"variant": "RFQC", "one-hybrid fitness for binding parS DNA": 0.925}
{"variant": "INEI", "one-hybrid fitness for binding parS DNA": "≤ 0.2"}
{"variant": "WESI", "one-hybrid fitness for binding parS DNA": "≤ 0.2"}
{"variant": "YTIN", "one-hybrid fitness for binding parS DNA": 0.217}
{"variant": "GCMS", "one-hybrid fitness for binding parS DNA": "≤ 0.2"}
{"variant": "PMGH", "one-hybrid fitness for binding parS DNA": "≤ 0.2"}
{"variant": "PFTP", "one-hybrid fitness for binding parS DNA": "≤ 0.2"}
{"variant": "QTID", "one-hybrid fitness for binding parS DNA": "≤ 0.2"}
{"variant": "LSET", "one-hybrid fitness for binding parS DNA": "≤ 0.2"}
{"variant": "PPNV", "one-hybrid fitness for binding parS DNA": "≤ 0.2"}
{"variant": "AMPI", "one-hybrid fitness for binding parS DNA": "≤ 0.2"}
{"variant": "QRQQ", "one-hybrid fitness for binding parS DNA": "≤ 0.2"}
{"variant": "PCDS", "one-hybrid fitness for binding parS DNA": "≤ 0.2"}
{"variant": "QEDC", "one-hybrid fitness for binding parS DNA": "≤ 0.2"}
{"variant": "DAAR", "one-hybrid fitness for binding parS DNA": "≤ 0.2"}
{"variant": "TPVV", "one-hybrid fitness for binding parS DNA": "≤ 0.2"}
{"variant": "HRRM", "one-hybrid fitness for binding parS DNA": "≤ 0.2"}
{"variant": "HERF", "one-hybrid fitness for binding parS DNA": "≤ 0.2"}
{"variant": "RAHP", "one-hybrid fitness for binding parS DNA": 0.241}
{"variant": "VQSY", "one-hybrid fitness for binding parS DNA": "≤ 0.2"}
{"variant": "KSLR", "one-hybrid fitness for binding parS DNA": "≤ 0.2"}
{"variant": "RMEC", "one-hybrid fitness for binding parS DNA": 0.878}
{"variant": "HTMR", "one-hybrid fitness for binding parS DNA": "≤ 0.2"}
{"variant": "NIVQ", "one-hybrid fitness for binding parS DNA": "≤ 0.2"}
{"variant": "RFLD", "one-hybrid fitness for binding parS DNA": "≤ 0.2"}
{"variant": "GRRI", "one-hybrid fitness for binding parS DNA": "≤ 0.2"}
{"variant": "HRFV", "one-hybrid fitness for binding parS DNA": "≤ 0.2"}
{"variant": "THAC", "one-hybrid fitness for binding parS DNA": "≤ 0.2"}
{"variant": "PQWS", "one-hybrid fitness for binding parS DNA": "≤ 0.2"}
{"variant": "TQAD", "one-hybrid fitness for binding parS DNA": "≤ 0.2"}
{"variant": "RYPI", "one-hybrid fitness for binding parS DNA": "≤ 0.2"}
{"variant": "LIFD", "one-hybrid fitness for binding parS DNA": "≤ 0.2"}
{"variant": "APLG", "one-hybrid fitness for binding parS DNA": "≤ 0.2"}
{"variant": "KNIG", "one-hybrid fitness for binding parS DNA": "≤ 0.2"}
{"variant": "NEGA", "one-hybrid fitness for binding parS DNA": "≤ 0.2"}
{"variant": "LGVC", "one-hybrid fitness for binding parS DNA": "≤ 0.2"}
{"variant": "GAMY", "one-hybrid fitness for binding parS DNA": "≤ 0.2"}
{"variant": "NYAI", "one-hybrid fitness for binding parS DNA": "≤ 0.2"}
{"variant": "PGLI", "one-hybrid fitness for binding parS DNA": "≤ 0.2"}
{"variant": "VANL", "one-hybrid fitness for binding parS DNA": "≤ 0.2"}
{"variant": "PRAH", "one-hybrid fitness for binding parS DNA": "≤ 0.2"}
{"variant": "QPGW", "one-hybrid fitness for binding parS DNA": "≤ 0.2"}
{"variant": "EAIS", "one-hybrid fitness for binding parS DNA": "≤ 0.2"}
{"variant": "LQDR", "one-hybrid fitness for binding parS DNA": "≤ 0.2"}
{"variant": "YLKY", "one-hybrid fitness for binding parS DNA": "≤ 0.2"}
{"variant": "WETF", "one-hybrid fitness for binding parS DNA": "≤ 0.2"}
{"variant": "QTDY", "one-hybrid fitness for binding parS DNA": "≤ 0.2"}
{"variant": "KMKP", "one-hybrid fitness for binding parS DNA": "≤ 0.2"}
{"variant": "QTWN", "one-hybrid fitness for binding parS DNA": "≤ 0.2"}
{"variant": "LKIL", "one-hybrid fitness for binding parS DNA": "≤ 0.2"}
{"variant": "AKYY", "one-hybrid fitness for binding parS DNA": "≤ 0.2"}
{"variant": "LASN", "one-hybrid fitness for binding parS DNA": "≤ 0.2"}
{"variant": "CFWR", "one-hybrid fitness for binding parS DNA": "≤ 0.2"}
{"variant": "RFYG", "one-hybrid fitness for binding parS DNA": 0.899}
{"variant": "TSHT", "one-hybrid fitness for binding parS DNA": "≤ 0.2"}
{"variant": "ENPG", "one-hybrid fitness for binding parS DNA": "≤ 0.2"}
{"variant": "VPLT", "one-hybrid fitness for binding parS DNA": "≤ 0.2"}
{"variant": "FTAD", "one-hybrid fitness for binding parS DNA": "≤ 0.2"}
{"variant": "FMNT", "one-hybrid fitness for binding parS DNA": "≤ 0.2"}
{"variant": "YPVW", "one-hybrid fitness for binding parS DNA": "≤ 0.2"}
{"variant": "QYPD", "one-hybrid fitness for binding parS DNA": "≤ 0.2"}
{"variant": "ELPT", "one-hybrid fitness for binding parS DNA": "≤ 0.2"}
{"variant": "CRSC", "one-hybrid fitness for binding parS DNA": "≤ 0.2"}
{"variant": "DFQR", "one-hybrid fitness for binding parS DNA": "≤ 0.2"}
{"variant": "SLVR", "one-hybrid fitness for binding parS DNA": "≤ 0.2"}
{"variant": "CCLA", "one-hybrid fitness for binding parS DNA": "≤ 0.2"}
{"variant": "QHTR", "one-hybrid fitness for binding parS DNA": "≤ 0.2"}
{"variant": "VFRV", "one-hybrid fitness for binding parS DNA": "≤ 0.2"}
{"variant": "HCPS", "one-hybrid fitness for binding parS DNA": "≤ 0.2"}
{"variant": "CTNR", "one-hybrid fitness for binding parS DNA": "≤ 0.2"}
{"variant": "RSTW", "one-hybrid fitness for binding parS DNA": 0.219}
{"variant": "TCGA", "one-hybrid fitness for binding parS DNA": "≤ 0.2"}
{"variant": "CRLN", "one-hybrid fitness for binding parS DNA": "≤ 0.2"}
{"variant": "IKSY", "one-hybrid fitness for binding parS DNA": "≤ 0.2"}
{"variant": "YNLC", "one-hybrid fitness for binding parS DNA": "≤ 0.2"}
{"variant": "FMRR", "one-hybrid fitness for binding parS DNA": "≤ 0.2"}
{"variant": "QQLV", "one-hybrid fitness for binding parS DNA": "≤ 0.2"}
{"variant": "CYRY", "one-hybrid fitness for binding parS DNA": "≤ 0.2"}
{"variant": "HASF", "one-hybrid fitness for binding parS DNA": "≤ 0.2"}
{"variant": "IMET", "one-hybrid fitness for binding parS DNA": "≤ 0.2"}
{"variant": "QGCT", "one-hybrid fitness for binding parS DNA": "≤ 0.2"}
{"variant": "RSRM", "one-hybrid fitness for binding parS DNA": 0.365}
{"variant": "LFSV", "one-hybrid fitness for binding parS DNA": "≤ 0.2"}
{"variant": "GISR", "one-hybrid fitness for binding parS DNA": "≤ 0.2"}
{"variant": "QTKF", "one-hybrid fitness for binding parS DNA": "≤ 0.2"}
{"variant": "PHLC", "one-hybrid fitness for binding parS DNA": "≤ 0.2"}
{"variant": "YCKR", "one-hybrid fitness for binding parS DNA": "≤ 0.2"}
{"variant": "MRMC", "one-hybrid fitness for binding parS DNA": "≤ 0.2"}
{"variant": "VYQG", "one-hybrid fitness for binding parS DNA": "≤ 0.2"}
{"variant": "SCSK", "one-hybrid fitness for binding parS DNA": "≤ 0.2"}
{"variant": "QEEM", "one-hybrid fitness for binding parS DNA": "≤ 0.2"}
{"variant": "TYAN", "one-hybrid fitness for binding parS DNA": "≤ 0.2"}
{"variant": "IQST", "one-hybrid fitness for binding parS DNA": "≤ 0.2"}
{"variant": "SNIT", "one-hybrid fitness for binding parS DNA": "≤ 0.2"}
{"variant": "DDTA", "one-hybrid fitness for binding parS DNA": "≤ 0.2"}
